Experimental data: the supplement of paper PMC4604168 (melanoma cell lines)
The other results are listed elsewhere or left out. Repeats are few or missing, and single values can be far off.

Assays:
Experiment in all cases: cell count relative to DMSO control; melanoma cells; higher = more viable cells
Conditions in all cases: library dose: standard library concentration; 72 h
G361 = test system: G361
IPC-298 = test system: IPC-298
IST-MEL1 = test system: IST-MEL1
LB2518-MEL = test system: LB2518-MEL
LOXIMVI = test system: LOXIMVI
MEL-HO = test system: MEL-HO
MZ2-MEL = test system: MZ2-MEL
MeWo = test system: MeWo
RPMI7951 = test system: RPMI7951
RVH-421 = test system: RVH-421
SkMel28 = test system: SkMel28
SkMel2 = test system: SkMel2
SkMel30 = test system: SkMel30
SkMel5 = test system: SkMel5
UACC257 = test system: UACC257
UACC62 = test system: UACC62
WM115 = test system: WM115
WM1716 = test system: WM1716
WM1745 = test system: WM1745
WM3526 = test system: WM3526
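Also: cells treated in 1,536-well plates, then fixed and DAPI-stained, with nuclei counted from automated high-throughput microscope images.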

Row | SMILES | cell count (G361) | cell count (IPC-298) | cell count (IST-MEL1) | cell count (LB2518-MEL) | cell count (LOXIMVI) | cell count (MEL-HO) | cell count (MZ2-MEL) | cell count (MeWo) | cell count (RPMI7951) | cell count (RVH-421) | cell count (SkMel28) | cell count (SkMel2) | cell count (SkMel30) | cell count (SkMel5) | cell count (UACC257) | cell count (UACC62) | cell count (WM115) | cell count (WM1716) | cell count (WM1745) | cell count (WM3526)
1 | Nc1ncn([C@H]2C[C@H](O)[C@@H](CO)O2)c(=O)n1 [decitabine] + C[As](C)SC[C@H](NC(=O)CC[C@H](N)C(=O)O)C(=O)NCC(=O)O [Darinaparsin] (first compound 0.5 µM, partner dose 2 µM) | 67.6% | 65.5% | 68.2% | 107% | 70% | 86.3% | 85.2% | 77% | 104% | 93.7% | 104% | 107% | 110% | 69.1% | 102% | 85.9% | 77.9% | 72.2% | 106% | 89.2%
2 | Cc1cc(SCc2sc(-c3ccc(C(F)(F)F)c(F)c3)nc2C)ccc1OCC(=O)O + Cc1cc([N+](=O)[O-])ccc1NS(=O)(=O)c1cc(Cl)ccc1Cl [FH535] (first compound 10 µM, partner dose 5 µM) | 58.4% | 58.4% | 58.4% | 99.8% | 155% | 58% | 77.1% | 91% | 101% | 79.3% | 80.3% | 86.6% | 113% | 66% | 80.1% | 133% | 96.2% | 89.9% | 121% | 92.7%
3 | C[C@]1(c2nc3c(C(N)=O)cccc3[nH]2)CCCN1 [Veliparib] + C/C(O)=C(\C#N)C(=O)Nc1cc(Br)ccc1Br [LFM-A13] (first compound 7 µM, partner dose 10 µM) | 102% | 89% | 95.7% | 92.8% | 111% | 80.7% | 88.7% | 121% | 153% | 73.5% | 69.1% | 87.9% | 82.6% | 77.8% | 93.6% | 80.8% | 79.3% | 100% | 134% | 101%
4 | CCN(CC)CCNC(=O)c1c(C)[nH]c(/C=C2\C(=O)Nc3ccc(F)cc32)c1C [sunitinib] + N.N.[Cl][Pt][Cl] [cisplatin] (first compound 2 µM, partner dose 8 µM) | 83.2% | 91.6% | 98.1% | 65.9% | 121% | 90.8% | 122% | 56.5% | 92.2% | 90.4% | 88.1% | 112% | 57.1% | 60.1% | 92.1% | 48.7% | 47.9% | 119% | 48.8% | 58.2%
5 | C[C@@H](N)c1ccc(C(=O)Nc2ccnc3[nH]ccc23)cc1 + C[C@]12O[C@H](C[C@]1(O)CO)n1c3ccccc3c3c4c(c5c6ccccc6n2c5c31)CNC4=O [Lestaurtinib] (first compound 2 µM, partner dose 0.02 µM) | 59.1% | 100% | 92.6% | 88.9% | 61.5% | 71.8% | 64.2% | 80.4% | 51.6% | 40.4% | 53.9% | 90.1% | 91.9% | 56.4% | 88.4% | 94.6% | 91.3% | 70.7% | 47.2% | 65.9%
6 | CN(NC(=O)CC(=O)NN(C)C(=S)c1ccccc1)C(=S)c1ccccc1 + C/C(O)=C(\C#N)C(=O)Nc1cc(Br)ccc1Br [LFM-A13] (first compound 0.03 µM, partner dose 10 µM) | 33.8% | 69.4% | 46.6% | 21.9% | 79.6% | 84.5% | 86.7% | 16.6% | 81.2% | 73.5% | 15.4% | 69.2% | 89% | 38.5% | 93.8% | 42.3% | 19.4% | 82.8% | 37.6% | 74.2%
7 | C/C(O)=C(\C#N)C(=O)Nc1cc(Br)ccc1Br + c1cc(-c2cnn3cc(-c4ccc(OCCN5CCCCC5)cc4)cnc23)ccn1 [Dorsomorphin] (first compound 10 µM, partner dose 2 µM) | 72.9% | 88.6% | 91.5% | 62.1% | 75.5% | 90.5% | 70.2% | 74.6% | 88.9% | 99.9% | 92.9% | 94.5% | 112% | 71.8% | 76.6% | 88.1% | 69.1% | 94.3% | 71.2% | 90.2%
8 | CC(C)(C)c1cnc(CSc2cnc(NC(=O)C3CCNCC3)s2)o1 + O=C(Oc1ccc([N+](=O)[O-])cc1)N1CCC(C(O)(c2ccc3c(c2)OCO3)c2ccc3c(c2)OCO3)CC1 [JZL184] (first compound 0.05 µM, partner dose 5 µM) | 77.8% | 93.5% | 108% | 77.9% | 70.9% | 89.1% | 74.5% | 72.6% | 21.6% | 64.7% | 49.7% | 62.6% | 73.9% | 72.2% | 76.9% | 50.9% | 62.9% | 55% | 71.1% | 78.8%
9 | COc1ccc(C2=N[C@@H](c3ccc(Cl)cc3)[C@@H](c3ccc(Cl)cc3)N2C(=O)N2CCNC(=O)C2)c(OC(C)C)c1 [Nutlin-3] + C[C@]12O[C@H](C[C@]1(O)CO)n1c3ccccc3c3c4c(c5c6ccccc6n2c5c31)CNC4=O [Lestaurtinib] (first compound 0.5 µM, partner dose 0.02 µM) | 64.3% | 74.7% | 87.1% | 55.4% | 57.7% | 81.2% | 81.1% | 78.8% | 107% | 83.1% | 57.5% | 83.4% | 93.9% | 56.2% | 60.9% | 60.3% | 59.7% | 65% | 67.4% | 65.8%
10 | O=C(Oc1ccc([N+](=O)[O-])cc1)N1CCC(C(O)(c2ccc3c(c2)OCO3)c2ccc3c(c2)OCO3)CC1 + Cn1cc(/C=C2\C(=O)Nc3cccnc32)c2ccccc21 [GW441756] (first compound 5 µM, partner dose 2 µM) | 86.6% | 92.9% | 95.5% | 116% | 108% | 99.7% | 82.5% | 94.8% | 70.1% | 85% | 91.3% | 96.8% | 102% | 78.6% | 85.4% | 98.1% | 97.3% | 82.1% | 79.1% | 86.9%
11 | OCCn1cc(-c2cnc3nnn(Cc4ccc5ncccc5c4)c3n2)cn1 + Cc1cc(SCc2sc(-c3ccc(C(F)(F)F)c(F)c3)nc2C)ccc1OCC(=O)O [GW0742] (first compound 5 µM, partner dose 10 µM) | 88% | 92.2% | 92.9% | 104% | 113% | 87.6% | 86.8% | 86.8% | 92% | 117% | 85.4% | 93.2% | 106% | 101% | 92.2% | 74.5% | 86.1% | 93.9% | 78.9% | 80.1%
12 | O=c1[nH]nc(Sc2ncc([N+](=O)[O-])s2)n1-c1ccc2c(c1)OCCO2 + N.N.[Cl][Pt][Cl] [cisplatin] (first compound 1 µM, partner dose 8 µM) | 96.9% | 110% | 96.8% | 106% | 57.4% | 93.3% | 89.9% | 90% | 83.6% | 21.3% | 99.7% | 105% | 115% | 109% | 78.2% | 103% | 90.3% | 101% | 92.3% | 111%
13 | COc1cc([C@@H]2c3cc4c(cc3[C@@H](O[C@@H]3O[C@@H]5CO[C@@H](C)O[C@H]5[C@H](O)[C@H]3O)[C@H]3COC(=O)[C@H]23)OCO4)cc(OC)c1O [etoposide] + Cn1cc(C2=C(c3cn(C4CCN(Cc5ccccn5)CC4)c4ccccc34)C(=O)NC2=O)c2ccccc21 [Enzastaurin] (first compound 0.1 µM, partner dose 4 µM) | 105% | 70.8% | 120% | 90.6% | 97.9% | 128% | 96.9% | 80.9% | 85.1% | 86.8% | 72.1% | 81.4% | 96.5% | 90.7% | 57.9% | 42.6% | 88.4% | 49.5% | 92% | 101%
14 | CO[C@@H]1[C@H](N(C)C(=O)c2ccccc2)C[C@H]2O[C@]1(C)n1c3ccccc3c3c4c(c5c6ccccc6n2c5c31)C(=O)NC4 [Midostaurin] + O=C(Oc1ccc([N+](=O)[O-])cc1)N1CCC(C(O)(c2ccc3c(c2)OCO3)c2ccc3c(c2)OCO3)CC1 [JZL184] (first compound 0.4 µM, partner dose 5 µM) | 46.9% | 55.1% | 64.8% | 50.3% | 61.4% | 64% | 43.2% | 62.1% | 33% | 54.2% | 39.5% | 61.3% | 52.5% | 54.1% | 35.6% | 39.8% | 38.6% | 28% | 25.6% | 52.6%
15 | Cc1cn(-c2cc(NC(=O)c3ccc(C)c(Nc4nccc(-c5cccnc5)n4)c3)cc(C(F)(F)F)c2)cn1 [nilotinib] + Cn1cc(C2=C(c3cn(C4CCN(Cc5ccccn5)CC4)c4ccccc34)C(=O)NC2=O)c2ccccc21 [Enzastaurin] (first compound 1 µM, partner dose 4 µM) | 69% | 90.8% | 74.9% | 52.2% | 151% | 80.2% | 129% | 85.5% | 56.6% | 50.1% | 85.1% | 53% | 92.8% | 93.7% | 114% | 64.9% | 89.6% | 63.3% | 37.6% | 81.3%
16 | COC(=O)c1sccc1S(=O)(=O)Nc1ccc(Nc2ccccc2)cc1OC + Cc1cc(SCc2sc(-c3ccc(C(F)(F)F)c(F)c3)nc2C)ccc1OCC(=O)O [GW0742] (first compound 5 µM, partner dose 10 µM) | 88.2% | 88% | 97.5% | 97.7% | 125% | 87% | 79.9% | 102% | 87.1% | 106% | 70% | 88.1% | 100% | 84.3% | 82.9% | 85.5% | 90% | 101% | 75.3% | 94.5%
